Sequences and labels used below:
B1: chr3:186556460:186556561:-|CDS|ENSG00000113838|unk|FALSE|unique (ssRNA)
RNA: GGGAGUUCUACAGUCCGACGAUCAGAGCCAGGAAGAUCUAUCCACUUCAUGAACUUGCACUGUGGCAACCACUGCAUGCAGAUAGUGGCUUCUCAAAGAUCUCUAAGACUUUCUCUUUCUACAAACUGGAAACCUGGUUGAGGCAACAGAGGAUUGAGCAUCA
B2: chr17:4671690:4673145:-|CDS|ENSG00000141456|control|control|control (ssRNA)
RNA: GGGAGUUCUACAGUCCGACGAUCGGAGGAAGAAGAACUGGAAGAGGUGGAAGACCUGGAGUUUGGCACAGCAGGAGGGGAGGUAGAAGAAGGUGCACCUCCACCCCCAACCCUGCCUCCAGCUCUGCCUCCCCCUGAGUCUCCCAACAGAGGAUUGAGCAUCA
B3: chr15:22826343:22826444:+|3pUTR|ENSG00000170113|msi1|FALSE|unique (ssRNA)
RNA: GGGAGUUCUACAGUCCGACGAUCAAAGUCCAUUACUCUUUUUAUUGGCUCUUGCAGGUUUUGUGUUUUAUCAUCAGUGCUUUUAGAAAUGCAGGCCUUAACUUACUGAACUGAACUUUCUGAAAACGUAAUGUAGCAGUAUCACAACAGAGGAUUGAGCAUCA
B4: ENSG00000198589:be:win_8351|CDS|ENSG00000198589|bound_else_gene|NA|bound_elsewhere_windowed (ssRNA)
RNA: GGGAGUUCUACAGUCCGACGAUCUCACAGGAGGAGACAGAGGAGUGGUCGUGGUCCGGCAGGUGUCGGACCUCAAGCAGCUCUUUGCCUAUCCAGGAUGUGACGCUGGAAUCCGGGCCAUGGCGCUGUCUUACGACCAGAGGUCAACAGAGGAUUGAGCAUCA
B5: ENSG00000107863:be:win_4501|CDS|ENSG00000107863|bound_else_gene|NA|bound_elsewhere_windowed (ssRNA)
RNA: GGGAGUUCUACAGUCCGACGAUCGAAGAACCCUCACCACCACACAACUCAAAACACAACAAGUCACCAACUCUCAGCUGUCGCUUUGCCAUCCUGAAAGAGAGCCCCAGGUCACUUCUGGCACAGAAGUCCUCCCACCUUGAACAACAGAGGAUUGAGCAUCA
B6: chr16:74503563:74503676:-|CDS|ENSG00000090863|unk|total|mutant (ssRNA)
RNA: GGGAGUUCUACAGUCCGACGAUCGGCAACAUCACUGAGUAUCAGUGUCACCAGUACAUUACCAAGAUGACGGCCAUCAUUUUCCGUGAUUACCGUUUAAUCUGUGGCUUCAUGGAUGACUGCAAAAAUGACAUCAACAUUCUGCAACAGAGGAUUGAGCAUCA
B7: ENSG00000113758:stop:overlap|stop_codon|ENSG00000113758|stop_codon|NA|stop_codon (ssRNA)
RNA: GGGAGUUCUACAGUCCGACGAUCUCACAUGCUGGGAUGCAGACCCAGUUCCAGAAGAGGAGGAGGGCUUCGAGGGUGGUGAUUAGCGGUGGCGCCAGCCCUAGGCUACCCUUGCCAAGGCCGCCCACCUGCAUCAGCCUCUGGCAACAGAGGAUUGAGCAUCA
B8: chr5:137939581:137939637:-|3pUTR|ENSG00000031003|msi1_unk|FALSE|overlapping (ssRNA)
RNA: GGGAGUUCUACAGUCCGACGAUCUGUUAGUAAAAUUUUGCAAUUCGCUGGUCACACAGCUCCCGGAUGAAGAUAACAGUUGGUAGACCAAAAGGUGACCUCGCUUAGUAUAUUGAAAACACACACCACACAUCACACACAGAACAACAGAGGAUUGAGCAUCA
B9: chr12:49764829:49764866:+|3pUTR|ENSG00000139644|msi1_unk|total|mutant (ssRNA)
RNA: GGGAGUUCUACAGUCCGACGAUCACUUUUAAAGAAAAUACCUAACAGAUUUUUAAUACCGUUAUCUCUACCACUUUCUUUUCCCGUUUCUUGAUUUUCAGCUCAGGCUGCAUUCUAACUCAUACUGUGAAGACAAAGGUGUUUCAACAGAGGAUUGAGCAUCA
B10: chr1:235808650:235808751:-|CDS|ENSG00000143669|unk|total|mutant (ssRNA)
RNA: GGGAGUUCUACAGUCCGACGAUCUGGAAAUGGGAUGCUUUAAAGGCUUAUCAGAACUUUGUUUUUGAAGAAGACAGAUUACACCGUAUACAGAUUGCAAAUCACAUUUGCAAUUUAAUCCAGAAAGGCAAUACCGUUGUUCAGCAACAGAGGAUUGAGCAUCA
B11: chr3:160432293:160432405:+|CDS|ENSG00000113810|unk|FALSE|bound_elsewhere (ssRNA)
RNA: GGGAGUUCUACAGUCCGACGAUCGAAUUGUAUUUGCAACGGGUAGCAGAAUUGGACAAAAUUACUUAUGAAAGAGACAGUUUUAGACAGGCAUAUGAAGAUCUUCGGAAACAAAGGCUUAAUGAAUUUAUGGCAGGUUUUUAUCAACAGAGGAUUGAGCAUCA
B12: chr12:1780521:1780622:+|CDS|ENSG00000006831|msi1|total|mutant (ssRNA)
RNA: GGGAGUUCUACAGUCCGACGAUCCCCAAAUAUCUCCUUUGUGGCCCCUCUGCAAGAGAAGGUGGUCUUUGGAUUAUUUUUCUCCGGAGCCAUUCUCUGCCUUUCUUUUUCAUGGCUCUUCCACACAGUCUACUGCCACUCAGACAACAGAGGAUUGAGCAUCA
B13: chr2:69942770:69942871:+|3pUTR|ENSG00000059728|unk|total|mutant (ssRNA)
RNA: GGGAGUUCUACAGUCCGACGAUCUGUUUCCAGAUGUUUCUUUAUGUAAAUAUGACGCCAAUGUAAAUCCUGUGUCAAGAUCACCGAGAAUGGUGCUUUUUACUACAGUCCGCACAUGCAUUUUCCGAAACUACUACAUGUUUUCAACAGAGGAUUGAGCAUCA
B14: chr2:54972555:54972835:-|3pUTR|ENSG00000115310|msi1_unk|total|mutant (ssRNA)
RNA: GGGAGUUCUACAGUCCGACGAUCUGUGCACUGUGUAUGGUCCGUGCCGAUUGAUGCAGAUUUUCUGAAAUGAAAUGUUUGUUCCGACGAGAUCAUACCGGUAAAGCAGGAAUGACAAAGCUUGCUUUUCUGGUAUGUUCCCGGCAACAGAGGAUUGAGCAUCA

The values below come from paper PMC12136788.

The other results are listed elsewhere or left out.

The experiment deals with MSI1 full-length (mouse, UniProt Q61474 1-362). Description: nsRBNS (natural sequence RNA bind-n-seq); RBNS binding buffer (assumed for nsRBNS): 25 mM Tris pH 7.5, 150 mM KCl, 3 mM MgCl2, 0.01% Triton X-100, 500 ug/ml BSA, 20 U/ml SUPERase-In, 4 C; UNK is unkempt and MSI1 is Musashi-1; names of the RNAs are library labels; protein concentration not given here; high values mean tight binding.
Chain of UniProt Q61474 (Q61474 whole entry): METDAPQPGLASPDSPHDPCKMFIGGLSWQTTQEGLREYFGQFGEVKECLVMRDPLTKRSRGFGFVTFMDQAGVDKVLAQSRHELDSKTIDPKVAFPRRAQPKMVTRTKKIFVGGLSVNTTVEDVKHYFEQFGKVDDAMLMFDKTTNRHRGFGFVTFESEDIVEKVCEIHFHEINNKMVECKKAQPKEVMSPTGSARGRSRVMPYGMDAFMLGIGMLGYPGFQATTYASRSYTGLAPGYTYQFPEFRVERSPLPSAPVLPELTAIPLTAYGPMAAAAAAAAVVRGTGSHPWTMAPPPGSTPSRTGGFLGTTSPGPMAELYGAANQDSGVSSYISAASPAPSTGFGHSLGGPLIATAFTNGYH
B1 yielded a binding signal of 0.307 enrichment R.

For B2, the binding signal was 0.51 enrichment R.

The molecule B3 had a binding signal of 3.29 enrichment R.

Molecule B4 returned a binding signal of 0.449 enrichment R.

On to B5, for which the binding signal came to 0.787 enrichment R.

With B6, the binding signal was determined as 0.274 enrichment R.

As to B7, the binding signal came to 0.694 enrichment R.

Regarding B8, the binding signal turned out to be 6.62 enrichment R.

Consider B9, for which the binding signal came to 0.561 enrichment R.

Consider B10, for which the binding signal was determined as 0.314 enrichment R.

On to B11, for which the binding signal amounted to 2.66 enrichment R.

For B12, the binding signal was determined as 0.482 enrichment R.

With B13, the binding signal turned out to be 0.29 enrichment R.

B14 showed a binding signal of 0.229 enrichment R.
